# Assay results taken from the supplement of paper PMC8728848.
# This is one part of the list.
# B1: MpL2 (Macrolepiota procera) (protein)
# chain: MSTQVSSGQTYKITNVKAGTVIDLSGEDNKSIIGYPYHSGKNQQWTFNWTGKAWTLRSASSGSYLGIEGTPADGTRLVAVNDPFEWHIWRDEANENAFRIFVPFTNYNLRLSGYGDTTPGTPVQLWWTWEGLHQTWTIDRP
# Assays:
# Test in all cases: glycan array binding signal (z-score within array); higher = stronger binding
# Settings in all cases: glycan notation: IUPAC condensed, linker removed; mutation: D109R
# [1] = biological target: Gal(b1-3)GlcNAc(b1-6)GalNAc
# Outline: (§1)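 Glycan array data were curated from 3228 arrays in the Consortium for Functional Glycomics database and kept only where the protein sequence was available. Glycan names were converted to IUPAC-condensed notation, and columns mapping to the same glycan were averaged. The binding signal is a within-array Z-score, averaged across arrays of the same protein sequence at different concentrations or buffers and across linkers. Negative Z-scores can be read as non-binding.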
# [2] = biological target: Gal(b1-3)GlcNAc(b1-6)[Gal(b1-3)]GalNAc
# Outline: as §1
# Gal(b1-3)GlcNAc6S = biological target: Gal(b1-3)GlcNAc6S
# Outline: as §1
# [3] = biological target: Gal(b1-3)[Fuc(a1-4)]GlcNAc
# Outline: as §1
# [4] = biological target: Gal(b1-3)[Fuc(a1-4)]GlcNAc(b1-2)Man
# Outline: as §1
# [5] = biological target: Gal(b1-3)[Fuc(a1-4)]GlcNAc(b1-2)Man(a1-3)[Gal(b1-3)[Fuc(a1-4)]GlcNAc(b1-2)Man(a1-6)]Man(b1-4)GlcNAc(b1-4)[Fuc(a1-6)]GlcNAc
# Outline: as §1
# [6] = biological target: Gal(b1-3)[Fuc(a1-4)]GlcNAc(b1-3)Gal(b1-3)[Fuc(a1-4)]GlcNAc
# Outline: as §1
# [7] = biological target: Gal(b1-3)[Fuc(a1-4)]GlcNAc(b1-3)Gal(b1-4)[Fuc(a1-3)]GlcNAc
# Outline: as §1
# [8] = biological target: Gal(b1-3)[Fuc(a1-4)]GlcNAc(b1-6)GalNAc
# Outline: as §1
# [9] = biological target: Gal(b1-3)[GlcNAc(b1-6)]GalNAc
# Outline: as §1
# [10] = biological target: Gal(b1-3)[Neu5Ac(a2-6)]GalNAc
# Outline: as §1
# [11] = biological target: Gal(b1-3)[Neu5Ac(a2-6)]GlcNAc(b1-4)Gal(b1-4)Glc
# Outline: as §1
# [12] = biological target: Gal(b1-3)[Neu5Ac(b2-6)]GalNAc
# Outline: as §1
# Gal(b1-4)Gal = biological target: Gal(b1-4)Gal
# Outline: as §1
# [13] = biological target: Gal(b1-4)GalNAc(a1-3)[Fuc(a1-2)]Gal(b1-4)GlcNAc
# Outline: as §1
# [14] = biological target: Gal(b1-4)GalNAc(b1-3)[Fuc(a1-2)]Gal(b1-4)GlcNAc
# Outline: as §1
# Gal(b1-4)Glc = biological target: Gal(b1-4)Glc
# Outline: as §1
# Gal(b1-4)Glc6S = biological target: Gal(b1-4)Glc6S
# Outline: as §1
# Gal(b1-4)GlcNAc = biological target: Gal(b1-4)GlcNAc
# Outline: as §1
# [15] = biological target: Gal(b1-4)GlcNAc(a1-6)Gal(b1-4)GlcNAc
# Outline: as §1
# Gal(b1-4)GlcNAc(b1-2)Man = biological target: Gal(b1-4)GlcNAc(b1-2)Man
# Outline: as §1
# [16] = biological target: Gal(b1-4)GlcNAc(b1-2)Man(a1-3)Man(b1-4)GlcNAc(b1-4)GlcNAc
# Outline: as §1
# [17] = biological target: Gal(b1-4)GlcNAc(b1-2)Man(a1-3)[Gal(b1-4)GlcNAc(b1-2)Man(a1-6)]Man(b1-4)GlcNAc(b1-4)GlcNAc
# Outline: as §1
# [18] = biological target: Gal(b1-4)GlcNAc(b1-2)Man(a1-3)[Gal(b1-4)GlcNAc(b1-2)Man(a1-6)]Man(b1-4)GlcNAc(b1-4)[Fuc(a1-6)]GlcNAc
# Outline: as §1
# [19] = biological target: Gal(b1-4)GlcNAc(b1-2)Man(a1-3)[Gal(b1-4)GlcNAc(b1-2)Man(a1-6)][Gal(b1-4)GlcNAc(b1-4)]Man(b1-4)GlcNAc(b1-4)[Fuc(a1-6)]GlcNAc
# Outline: as §1
# [20] = biological target: Gal(b1-4)GlcNAc(b1-2)Man(a1-3)[Gal(b1-4)GlcNAc(b1-2)Man(a1-6)][GlcNAc(b1-4)]Man(b1-4)GlcNAc(b1-4)[Fuc(a1-6)]GlcNAc
# Outline: as §1
# [21] = biological target: Gal(b1-4)GlcNAc(b1-2)Man(a1-3)[GlcNAc(b1-2)Man(a1-6)]Man(b1-4)GlcNAc(b1-4)GlcNAc
# Outline: as §1
# [22] = biological target: Gal(b1-4)GlcNAc(b1-2)Man(a1-3)[GlcNAc(b1-4)][Gal(b1-4)GlcNAc(b1-2)Man(a1-6)]Man(b1-4)GlcNAc(b1-4)GlcNAc
# Outline: as §1
# [23] = biological target: Gal(b1-4)GlcNAc(b1-2)Man(a1-3)[Man(a1-6)]Man(b1-4)GlcNAc(b1-4)GlcNAc
# Outline: as §1
# [24] = biological target: Gal(b1-4)GlcNAc(b1-2)Man(a1-6)Man(b1-4)GlcNAc(b1-4)GlcNAc
# Outline: as §1
# [25] = biological target: Gal(b1-4)GlcNAc(b1-2)Man(a1-6)[GlcNAc(b1-2)Man(a1-3)]Man(b1-4)GlcNAc(b1-4)GlcNAc
# Outline: as §1
# [26] = biological target: Gal(b1-4)GlcNAc(b1-2)Man(a1-6)[Man(a1-3)]Man(b1-4)GlcNAc(b1-4)GlcNAc
# Outline: as §1
# [27] = biological target: Gal(b1-4)GlcNAc(b1-2)[Gal(b1-4)GlcNAc(b1-4)]Man(a1-3)[Gal(b1-4)GlcNAc(b1-2)Man(a1-6)]Man(b1-4)GlcNAc(b1-4)GlcNAc
# Outline: as §1
# [28] = biological target: Gal(b1-4)GlcNAc(b1-2)[Gal(b1-4)GlcNAc(b1-4)]Man(a1-3)[Gal(b1-4)GlcNAc(b1-2)[Gal(b1-4)GlcNAc(b1-6)]Man(a1-6)]Man(b1-4)GlcNAc(b1-4)GlcNAc
# Outline: as §1
# [29] = biological target: Gal(b1-4)GlcNAc(b1-2)[Gal(b1-4)GlcNAc(b1-4)]Man(a1-3)[GlcNAc(b1-4)][Gal(b1-4)GlcNAc(b1-2)Man(a1-6)]Man(b1-4)GlcNAc(b1-4)GlcNAc
# Outline: as §1
# [30] = biological target: Gal(b1-4)GlcNAc(b1-2)[Gal(b1-4)GlcNAc(b1-4)]Man(a1-3)[GlcNAc(b1-4)][Gal(b1-4)GlcNAc(b1-2)[Gal(b1-4)GlcNAc(b1-6)]Man(a1-6)]Man(b1-4)GlcNAc(b1-4)GlcNAc
# Outline: as §1
# [31] = biological target: Gal(b1-4)GlcNAc(b1-2)[Gal(b1-4)GlcNAc(b1-6)]Man(a1-6)[Gal(b1-4)GlcNAc(b1-2)Man(a1-3)]Man(b1-4)GlcNAc(b1-4)GlcNAc
# Outline: as §1
# [32] = biological target: Gal(b1-4)GlcNAc(b1-2)[Gal(b1-4)GlcNAc(b1-6)]Man(a1-6)[Gal(b1-4)GlcNAc(b1-2)Man(a1-3)]Man(b1-4)GlcNAc(b1-4)[Fuc(a1-6)]GlcNAc
# Outline: as §1
# [33] = biological target: Gal(b1-4)GlcNAc(b1-2)[Gal(b1-4)GlcNAc(b1-6)]Man(a1-6)[GlcNAc(b1-4)][Gal(b1-4)GlcNAc(b1-2)Man(a1-3)]Man(b1-4)GlcNAc(b1-4)GlcNAc
# Outline: as §1
# [34] = biological target: Gal(b1-4)GlcNAc(b1-2)[Gal(b1-4)GlcNAc(b1-6)]Man(a1-6)[GlcNAc(b1-4)][Gal(b1-4)GlcNAc(b1-2)[Gal(b1-4)GlcNAc(b1-4)]Man(a1-3)]Man(b1-4)GlcNAc(b1-4)[Fuc(a1-6)]GlcNAc
# Outline: as §1
# [35] = biological target: Gal(b1-4)GlcNAc(b1-3)Gal(b1-3)GalNAc
# Outline: as §1
# [36] = biological target: Gal(b1-4)GlcNAc(b1-3)Gal(b1-3)GlcNAc
# Outline: as §1
# [37] = biological target: Gal(b1-4)GlcNAc(b1-3)Gal(b1-4)Glc
# Outline: as §1
# [38] = biological target: Gal(b1-4)GlcNAc(b1-3)Gal(b1-4)GlcNAc
# Outline: as §1
# [39] = biological target: Gal(b1-4)GlcNAc(b1-3)Gal(b1-4)GlcNAc(b1-2)Man(a1-3)[Gal(b1-4)GlcNAc(b1-3)Gal(b1-4)GlcNAc(b1-2)Man(a1-6)]Man(b1-4)GlcNAc(b1-4)GlcNAc
# Outline: as §1
binder,measurement,setting,value
B1,glycan array binding signal (z-score),[1],-0.196
same,glycan array binding signal (z-score),[2],-0.242
same,glycan array binding signal (z-score),Gal(b1-3)GlcNAc6S,-0.242
same,glycan array binding signal (z-score),[3],-0.267
same,glycan array binding signal (z-score),[4],-0.23
same,glycan array binding signal (z-score),[5],-0.241
same,glycan array binding signal (z-score),[6],-0.248
same,glycan array binding signal (z-score),[7],-0.267
same,glycan array binding signal (z-score),[8],-0.163
same,glycan array binding signal (z-score),[9],-0.246
same,glycan array binding signal (z-score),[10],-0.287
same,glycan array binding signal (z-score),[11],-0.253
same,glycan array binding signal (z-score),[12],-0.244
same,glycan array binding signal (z-score),Gal(b1-4)Gal,-0.256
same,glycan array binding signal (z-score),[13],-0.164
same,glycan array binding signal (z-score),[14],-0.107
same,glycan array binding signal (z-score),Gal(b1-4)Glc,-0.244
same,glycan array binding signal (z-score),Gal(b1-4)Glc6S,-0.229
same,glycan array binding signal (z-score),Gal(b1-4)GlcNAc,0.003
same,glycan array binding signal (z-score),[15],12.2
same,glycan array binding signal (z-score),Gal(b1-4)GlcNAc(b1-2)Man,-0.249
same,glycan array binding signal (z-score),[16],-0.085
same,glycan array binding signal (z-score),[17],0.999
same,glycan array binding signal (z-score),[18],0.18
same,glycan array binding signal (z-score),[19],1.38
same,glycan array binding signal (z-score),[20],0.239
same,glycan array binding signal (z-score),[21],-0.001
same,glycan array binding signal (z-score),[22],-0.094
same,glycan array binding signal (z-score),[23],-0.118
same,glycan array binding signal (z-score),[24],-0.201
same,glycan array binding signal (z-score),[25],-0.243
same,glycan array binding signal (z-score),[26],-0.238
same,glycan array binding signal (z-score),[27],1.8
same,glycan array binding signal (z-score),[28],2.87
same,glycan array binding signal (z-score),[29],0.508
same,glycan array binding signal (z-score),[30],1.73
same,glycan array binding signal (z-score),[31],1.86
same,glycan array binding signal (z-score),[32],2.31
same,glycan array binding signal (z-score),[33],0.336
same,glycan array binding signal (z-score),[34],1.35
same,glycan array binding signal (z-score),[35],-0.247
same,glycan array binding signal (z-score),[36],-0.195
same,glycan array binding signal (z-score),[37],0.145
same,glycan array binding signal (z-score),[38],0.419
same,glycan array binding signal (z-score),[39],1.19
